# In all, about 33,000 sequences were measured (“E-score (-0.5 to 0.5)”: median about -0.013, highest 2% from about 0.3 on). Some of the results follow.
# Target: T1, Msn1 (UniProt P22148)
# T1 sequence: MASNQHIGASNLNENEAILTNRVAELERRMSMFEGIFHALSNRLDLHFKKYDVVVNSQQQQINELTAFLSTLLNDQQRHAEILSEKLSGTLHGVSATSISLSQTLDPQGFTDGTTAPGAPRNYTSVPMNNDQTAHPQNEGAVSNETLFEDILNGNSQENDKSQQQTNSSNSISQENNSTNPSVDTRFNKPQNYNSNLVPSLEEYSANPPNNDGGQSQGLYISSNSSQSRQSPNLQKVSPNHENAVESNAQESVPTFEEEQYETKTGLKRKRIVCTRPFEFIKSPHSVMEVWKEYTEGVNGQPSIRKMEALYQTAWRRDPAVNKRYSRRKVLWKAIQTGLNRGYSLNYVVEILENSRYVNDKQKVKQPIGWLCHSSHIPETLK
# Test: PBM E-score (8-mer binding enrichment) (E-score (-0.5 to 0.5)); higher = stronger / more preferred TF binding; most listed sequences are background and not binding sites
# Conditions: protein concentration: 200 nM; construct: GST-full length
# Description: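 Universal 'all 10-mer' protein binding microarrays (Agilent AMADID 015681) probed with GST-tagged S. cerevisiae TFs (full-length or DBD) made by in vitro transcription/translation (PURExpress), about 100-200 nM. Bound TF was detected with fluorescent anti-GST. Each ungapped 8-mer (which stands for itself and its reverse complement) is scored by the PBM enrichment score (E-score), a modified Wilcoxon-Mann-Whitney statistic from -0.5 to +0.5, computed with the Universal PBM Analysis Suite. Scale: above 0.35 generally sequence-specific binding.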
row,Sequence,PBM E-score
1,CAATTTAA,0.106
2,ACTGGTAG,-0.12
3,ATATTCAC,0.0923
4,GGCGTACA,0.0485
5,ACGACTTC,0.0847
6,CCACGTCC,0.046
7,AAGAAGAC,-0.105
8,GGACCGAC,0.0571
9,CACAGTGG,0.0274
10,CAGAATTC,0.135
11,CCCGATCA,-0.147
12,AACCCACA,0.0717
13,AACATGGA,0.159
14,GACCTGGC,-0.141
15,GGGATAGA,-0.152
16,GATGTGCC,-0.00643
17,CGGCCCTC,-0.139
18,GGGATCAC,-0.286
19,AGTAACGG,0.0143
20,CCGATAGC,-0.175
21,AGGAGTAT,-0.312
22,AGATAGCC,-0.187
23,CCCGACGC,-0.00326
24,ATCTTCTG,-0.134
25,CGCAGACC,-0.123

row,Sequence,PBM E-score
1,GCTAGCAC,-0.084
2,TACCCATA,-0.0173
3,CATCCATA,0.0681
4,GGGTGTGA,-0.134
5,CCTCCGCA,-0.151
6,ACAATCGG,0.271
7,GCATTGAC,-0.0839
8,CACAGGAA,0.0261
9,AATCTCAA,-0.0619
10,ACTTAGCA,-0.0833
11,CCACCTCA,-0.174
12,GGTGTTAC,-0.0745
13,AACACGAC,0.00642
14,GAGCTTCC,-0.0316
15,ATGCTGGA,-0.0259
16,AGACAAAA,0.437
17,CACCGCAA,0.039
18,GCTCCTCC,-0.309
19,GCACTCGC,-0.0631
20,AAGTGACA,0.212
21,GCAGCGGA,0.0601
22,AAGTACCC,-0.0939
23,CATATATC,0.115
24,ATCTGGCG,-0.113
25,CCTGTTAG,0.12

row,Sequence,PBM E-score
1,ACTCGTAA,0.0754
2,CCAACAGC,-0.084
3,GAGGCGGA,-0.3
4,TGGTGACA,0.19
5,CCAGACAG,-0.094
6,ATCGCGAT,0.0975
7,AGGTGTAA,0.00173
8,ATCTCTGG,0.00384
9,CGCTGGTC,-0.156
10,GATCCTAC,0.0164
11,CAAAGTGC,0.0233
12,ACTCCCCT,-0.275
13,CGCCACAA,-0.016
14,CGTGATTC,-0.101
15,ACGGGGGC,-0.218
16,TCGCCACA,-0.15
17,CATAGTAA,0.146
18,CCTTTGAA,-0.154
19,GGGGCCGA,-0.394
20,CTGTGGCA,-0.0645
21,TAGATCCA,-0.0364
22,AAGGTACT,0.155
23,ACTATCAC,0.0583
24,AACTCACG,0.0813
25,TAGTGAGA,-0.0792

row,Sequence,PBM E-score
1,AGTGGTCG,-0.0675
2,TAGTTCAA,-0.0528
3,CCTATACG,-0.162
4,GGAGTCCC,-0.227
5,ATCTAACA,-0.162
6,ATGGAGCG,-0.0801
7,AAAAAATG,0.287
8,GTTATAGA,0.0971
9,CGGCGGTA,0.136
10,GGGAAGGA,-0.141
11,CCAACGGC,-0.132
12,GCGGCTGA,-0.191
13,TCCGCAAA,0.137
14,CGGATTAG,-0.00838
15,AAGATCTA,-0.185
16,AACGTCCA,0.154
17,CCCTATAC,-0.129
18,CCCGGTGC,-0.235
19,ATCGGACA,0.369
20,ACCCCAAG,-0.113
21,CGGAAGCA,0.0289
22,ATTGGCGG,0.00685
23,GACCTTAC,-0.148
24,CGTGAATA,0.034
25,GAGTAAAA,0.121

row,Sequence,PBM E-score
1,ACTAAATG,0.133
2,GCGTGCAA,-0.206
3,CAGGAAGC,0.0602
4,AGATGTCC,0.477
5,AGTGCCAC,-0.131
6,AAAACCGG,0.141
7,AAGCTGGG,-0.145
8,CTCCATAA,-0.129
9,CTAAGACC,0.0795
10,AAGTGCCG,0.221
11,AAAAAACC,0.21
12,TGGGACCA,-0.117
13,AGAGCCAA,-0.0542
14,GCTGGACA,0.276
15,CCGCGAGG,0.0728
16,CTCTTCGA,-0.168
17,AGTCTCCC,-0.192
18,AGCGGACG,0.0534
19,AGCTATAT,-0.00185
20,CGCTGAAA,-0.0354
21,CCCTTCCC,-0.207
22,TCAATTCA,-0.0849
23,GCCTCCTA,-0.184
24,GGGCGAGA,-0.16
25,GTAGGGAC,0.178

row,Sequence,PBM E-score
1,GAGGCGGC,-0.13
2,ACTGGTGC,-0.177
3,TAGCCTAA,-0.184
4,CATATGAG,0.153
5,GTACGGTA,-0.0464
6,GGCAGGAA,-0.075
7,ATCCGAAA,0.057
8,ACCAAGAC,0.248
9,ATGGCCTC,-0.118
10,AACCGAGC,-0.0343
11,AGTGCAAG,0.104
12,AGCGAGTC,-0.241
13,CACAATTC,0.176
14,GAGCGCCC,-0.218
15,TACATAAA,0.15
16,CGGCCGAG,0.156
17,CCCCAAGC,0.0454
18,ACAACGCC,0.0528
19,TCAATAGA,-0.0443
20,GAGAATGC,0.0856
21,CCTAGGGA,-0.0411
22,GTGCGATA,-0.01
23,GCGTGAAA,0.179
24,ACTCCAAT,-0.00308
25,GAGTGTGC,0.0104

row,Sequence,PBM E-score
1,ATGACTGC,-0.0346
2,TCCTCCAA,-0.142
3,CTGAACTC,-0.0622
4,ATGACTTG,0.0928
5,ACTATGTA,0.094
6,AATACCCG,-0.00878
7,CTGGCAAA,-0.00405
8,ATCTTCGA,-0.0568
9,GCCCACGA,-0.0363
10,GGGCGAAA,0.124
11,ATTCTGCC,0.0249
12,TAGCAGGA,0.0461
13,AAGTTCTG,0.07
14,CAGAGACC,-0.103
15,AATAGAAG,0.155
16,CTTAGAAA,0.164
17,CGCGCGGA,0.00041
18,CTCGCCTC,-0.144
19,CTGGATAC,-0.0105
20,CTGCTCGC,0.0139
21,AACCTCGG,0.102
22,GGTTAGAC,0.076
23,AGTTAGAT,-0.0679
24,AGAGACTG,-0.231
25,ACCGAGCA,-0.177

row,Sequence,PBM E-score
1,ACTCGCCA,-0.00104
2,ATCACCGC,-0.177
3,GGAATGCA,-0.141
4,ACGAGTTG,0.0583
5,ACGCGTTA,0.041
6,GTTTATCA,0.165
7,GAAAACGC,0.0675
8,CCACAGAA,0.11
9,AACACGAT,0.0472
10,AATCGCAC,-0.135
11,ATTGGGTA,0.165
12,ATTTATTC,0.241
13,GATCGATA,0.136
14,GGTACATA,0.341
15,ACTAGAAC,0.0454
16,CTCATAGC,-0.264
17,ACTTGCCA,0.052
18,ATGTGAGG,0.0395
19,GAATTTTA,0.148
20,AGGGGGAT,-0.258
21,CACTTAGG,0.0127
22,ATTATAGA,0.118
23,CTCTTCGC,-0.0905
24,CAGGGGAG,-0.294
25,CGGTTACG,-0.0655

row,Sequence,PBM E-score
1,GCAACTCA,0.039
2,CCGGCGAC,-0.125
3,ACAATAAC,0.252
4,AGGGTTCC,0.0448
5,CTGAAGCA,-0.12
6,ACAAAAGG,0.229
7,CCGCATCC,-0.175
8,TAGCCTGA,-0.0702
9,CTACCCAG,-0.176
10,ACGTAATA,-0.0123
11,GGCCCTTA,-0.169
12,CGGACATC,0.387
13,CGCCGAAA,0.0948
14,TATGGAAA,0.071
15,CAGGGTAA,-0.144
16,CCTACTAG,-0.0734
17,CAGGATCA,-0.0384
18,CGCGGACC,0.0148
19,GGTCAAGA,-0.0244
